In PubChem BioAssay AID504706 (National Center for Advancing Translational Sciences (NCATS), 2011):
Out of some 320,000 compounds screened, about 200 (0.062%) were called active. This list was built around the results that the source calls inconclusive (neither active nor inactive); the mix of calls is not that of the screen. The call rests on the fitted dose curve; in most records, active means well fitted activation curve with a large enough effect; inconclusive means small, poorly fitted or top-dose-only effect; inactive means no such curve, though single readings can be large or run the other way. Potencies of inconclusive entries are left out as doubtful fits.

Experiment: qHTS assay for re-activators of p53 using a Luc reporter; further: nearly all actives have a fitted effect of over 45% in size
Details: H1299 p53-A138V BP100-luciferase reporter, luminescence, 24 h; series mostly up to 92.2 µM
Method in brief: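 H1299 (p53-null), stable ts p53-A138V + BP100-Luc; 1000 cells/well, Opti-MEM/10% FBS; cpd 4 pt, 1:5; 24 h, 37 deg C, 5% CO2; detection reagent 10 min RT; luminescence.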
Potency means the concentration at half of the fitted maximal effect; tags describe the fitted curve by direction and shape.

Row | SMILES | Potency
1 | COC(=O)C1=CN(C)C=C(C(=O)OC)C1c1ccsc1 | inactive
2 | O=C(Nc1ccc(F)cc1F)N1CCCCC1c1cccnc1 (stereo unspecified) | inconclusive [activator, single point]
3 | C1CCN=C(Nc2nc3c(s2)CCCC3)CC1 | inconclusive [activator, single point]
4 | COc1cc(C(=S)N2CCC(C)CC2)ccc1O | inactive
5 | O=C(Nc1ccc(N2CCOCC2)c2nonc12)C1CCCC1 | inactive
6 | Cc1nn(C)c(C)c1N1C(=O)c2cccc3c(Br)ccc(c23)C1=O | inactive
7 | CN1CCN(c2ccc(-c3cccc(NC(=O)COc4ccccc4)c3)nn2)CC1 | inactive
8 | Cc1cc(C)c2cc3c(N)c(C(=O)N4CCc5ccccc5C4)sc3nc2c1 | inactive
9 | CC1CCCCN1C(=O)c1cc2c(=O)n3ccccc3nc2s1 (stereo unspecified) | inconclusive [activator, partial curve, poor fit]
10 | O=[N+]([O-])c1ccc2ncnc(Nc3ccc4c(c3)OCCO4)c2c1 | inconclusive [activator, partial curve, poor fit]
11 | CS(=O)(=O)n1nc(-c2ccc(Cl)cc2)nc1SCc1ccccc1 | inconclusive [activator, partial curve, poor fit]
12 | Nc1c(C(=O)Nc2ccc(S(=O)(=O)N3CCCC3)cc2)sc2nc3cc4c(cc3cc12)CCC4 | inconclusive [activator, single point]
13 | O=C(Nc1ccc(NC(=O)C2CC2)nc1)c1cccc(F)c1 | inconclusive [activator, single point]
14 | COc1ccc(-n2c(C)cc(/C=C3\C(=O)NN(c4ccccc4)C3=O)c2C)cc1 | inconclusive [activator, full curve, poor fit]
15 | C=CCOc1c(Br)cc(/C=C2\SC(=Nc3ccccc3)NC2=O)cc1OC | inactive
16 | CCCCN(c1ccc(C(=O)OC)cc1)S(=O)(=O)c1ccccc1 | inconclusive [activator, single point]
17 | C#CCOc1ccc(/C=C2\SC(=S)N(Cc3cccnc3)C2=O)cc1 | active: 35.5 µM
18 | COc1ccc(NC(=O)Nc2ncccc2C)cc1 | inconclusive [activator, partial curve, poor fit]
19 | O=C(Nc1cccc(Cl)c1)Nc1ccc2c(c1)OCO2 | inconclusive [activator, partial curve, poor fit]
20 | COc1ccc(CN/C(C)=C(/C#N)C(N)=O)cc1OC | inconclusive [activator, single point]
21 | Cn1cccc1C(=O)NNC(=O)COc1ccccc1Cl | inconclusive [activator, partial curve, poor fit]
22 | Cc1c(NC(=O)C(C)OC(=O)CC2Sc3ccccc3NC2=O)c(=O)n(-c2ccccc2)n1C (stereo unspecified) | inconclusive [activator, partial curve, poor fit]
23 | O=C(Nc1nnc(SCC(=O)N2CCCc3ccccc32)s1)c1ccccc1 | inconclusive [activator, full curve, poor fit]
24 | Cc1nsc(Nc2ccccc2)c1C#N | inactive

Row | SMILES | Potency
25 | O=C1CC(O)(c2ccccc2)C(c2ccccc2)=C1c1ccccc1 (stereo unspecified) | inconclusive [activator, partial curve, poor fit]
26 | CCc1ccc(C(=O)Cc2cc3cccc(OC)c3oc2=O)cc1 | inactive
27 | O=C1C(Cl)=C(NCC2CCCO2)C(=O)N1CCc1ccccc1 (stereo unspecified) | inconclusive [activator, partial curve, poor fit]
28 | CC(C)[C@H](NC(=O)OCc1ccccc1)C(=O)OCC(=O)c1ccccc1 | inconclusive [activator, full curve, poor fit]
29 | CCc1ccccc1N(CC(=O)NC(C)c1ccccc1)S(C)(=O)=O (stereo unspecified) | inconclusive [activator, single point]
30 | CN1/C(=C/C(=O)C2CCC2)Sc2ccccc21 | inconclusive [activator, partial curve, poor fit]
31 | Cc1oc(-c2ccccc2F)nc1CS(=O)(=O)CC(=O)NC1CCCC(C)C1C (stereo unspecified) | inactive
32 | O=C(O)c1ccc(CSc2nnc(-c3ccco3)o2)cc1 | inactive
33 | CCC(CC)COC(=O)C1=C(C)NC(=O)NC1c1ccc(N(C)C)cc1 (stereo unspecified) | inactive
34 | Cn1nnc(NC(=O)c2ccc3ccccc3c2)n1 | inactive
35 | CC(C)(C)c1ccc(S(=O)(=O)N2CCSC2)cc1 | inconclusive [activator, full curve, poor fit]
36 | COCCCNC(=O)C1CCN(C(=O)c2oc3cc4sc(N(C)C)nc4cc3c2C)CC1 | inconclusive [activator, partial curve, poor fit]
37 | CCN(CC)CC(C)(C)COC(=O)c1oc2ccccc2c1C | inactive
38 | O=C1CC(C(=O)N2CCCc3ccccc32)CN1c1ccc(F)cc1 (stereo unspecified) | inconclusive [activator, partial curve, poor fit]
39 | O=C(Nc1cc(Cl)ccc1O)c1cc(-c2ccco2)on1 | inconclusive [activator, partial curve, poor fit]
40 | CCOC(=O)c1nn(-c2ccc(Cl)cc2)cc1O | inconclusive [activator, full curve, poor fit]
41 | Nc1cccnc1Sc1ccc([N+](=O)[O-])cn1 | inactive
42 | O=C(CSc1nnc(-c2ccccn2)o1)Nc1ccccc1Cl | inconclusive [activator, partial curve, poor fit]
43 | C=CCNC(=O)c1cc(-c2ccccc2O)on1 | inconclusive [activator, full curve, poor fit]
44 | CCc1[nH]nc2c1C(C1C=CCCC1)C(C#N)=C(N)O2 (stereo unspecified) | inconclusive [activator, single point]
45 | Oc1cccc(NC(=S)N=Nc2c(O)[nH]c3ccccc23)c1 | inactive
46 | CCc1ccc(NC(=O)N2CCCCCC2)cc1 | inconclusive [activator, partial curve, poor fit]
47 | CC(C)NC(=O)COC(=O)/C=C/c1ccc(F)cc1 | inconclusive [activator, single point]
48 | CCc1ccccc1Nc1nc2ccccc2n1C | inactive

Row | SMILES | Potency
49 | O=C(/C=C/c1ccc(Cl)cc1Cl)N1CCN(c2ccccc2[N+](=O)[O-])CC1 | inactive
50 | Cc1cccc(C)c1NC(=O)C1(N(Cc2ccco2)C(=O)CC2NC(=O)NC2=O)CCCC1 (stereo unspecified) | inconclusive [activator, single point]
51 | COc1ccccc1C(CNC(=O)CSc1ccc2ccccc2c1)N(C)C (stereo unspecified) | inconclusive [activator, single point]
52 | O=C(NCc1ccco1)c1cc(-c2ccc(F)cc2)on1 | inconclusive [activator, partial curve, poor fit]
53 | O=C1C(=O)N(Cc2ccncc2)C(c2cccc(O)c2)/C1=C(\O)c1ccc2c(c1)OCCO2 (stereo unspecified) | inconclusive [activator, single point]
54 | O=C(COc1ccc2ccccc2c1)NNC(=O)c1cccs1 | inactive
55 | Cc1cc(C)n(-c2nc3ccccc3c(=O)n2OCC(=O)OCc2ccccc2)n1 | inconclusive [activator, single point]
56 | COc1ccc(N2CCN(C(=O)CNC(=O)c3ccccc3Cl)CC2)cc1 | inactive
57 | CNC(=O)c1csc(-c2ccc(C)cc2)n1 | inconclusive [activator, full curve, poor fit]
58 | Cc1noc(C)c1COC(=O)CCc1nc2ccccc2s1 | inconclusive [activator, single point]
59 | O=C(N/N=C/C(Br)=C/c1ccccc1)c1cccs1 | inconclusive [activator, partial curve, poor fit]
60 | C/C(=N/Nc1nc(C)c(C)s1)c1cccc([N+](=O)[O-])c1 | inconclusive [activator, single point]
61 | CCOc1ccc(NC(=O)C2CCN(C(=O)NCc3ccccc3)CC2)cc1 | inconclusive [activator, partial curve, poor fit]
62 | CNc1cc(C)nc(-n2nc(C)cc2C)n1 | inconclusive [activator, partial curve, poor fit]
63 | Cc1nc2ccc(Cl)cc2nc(C)/c1=N\O | inconclusive [activator, full curve, poor fit]
64 | Oc1ccc(Nc2nc(-c3cccs3)cs2)cc1 | inactive
65 | c1ccc(N2CCN(c3nc4cc5c(cc4s3)OCO5)CC2)cc1 | inconclusive [activator, partial curve, poor fit]
66 | CCCn1nnnc1NCc1ccc(OC)cc1 | inconclusive [activator, single point]
67 | Clc1cccc(-c2ccc(-c3nc4ccccn4c3NCc3ccccc3)cc2)c1 | inconclusive [activator, full curve, poor fit]
68 | N#Cc1nc(Cc2ccccc2)oc1NCCc1ccccc1 | inconclusive [activator, partial curve, poor fit]
69 | O=C(NCc1cc(F)ccc1F)C1CCC(=O)N(C2CCCCCC2)C1 (stereo unspecified) | inconclusive [activator, partial curve, poor fit]
70 | Cc1ccc(S(=O)(=O)N2CCN(C(=O)CC(C)C)CC2)cc1 | inactive
71 | Cc1ccc(-c2nn(-c3ccccc3)cc2/C=N/n2c(-c3cccs3)n[nH]c2=S)cc1 | inactive
